Laboratory results reported in PubChem BioAssay AID1030 (National Center for Advancing Translational Sciences (NCATS), 2008).
About 16,000 (7.3%) of roughly 220,000 compounds were called active. This list was built around the results that the source calls inconclusive (neither active nor inactive); the mix of calls is not that of the screen. Calls come from the whole dose curve; as a rule, active = well fitted inhibition curve with a large enough effect (not every such curve was filed as active); inconclusive = small, poorly fitted or top-dose-only effect, or another doubt; inactive = no such curve, though single readings can be large or run the other way. No potency is given beside an inconclusive call; the fits are too rough.

Molecular target: Aldehyde dehydrogenase 1A1 (Homo sapiens) (UniProt P00352)
Test: qHTS Assay for Inhibitors of Aldehyde Dehydrogenase 1 (ALDH1A1)
Conditions: Purified ALDH1A1, NADH fluorescence, propionaldehyde substrate; series mostly up to 75.3 µM
Potency is the fitted concentration of half-maximal effect; tags give direction and shape of the fitted curve.

UniProt P00352, sequence (P00352 whole entry, looked up): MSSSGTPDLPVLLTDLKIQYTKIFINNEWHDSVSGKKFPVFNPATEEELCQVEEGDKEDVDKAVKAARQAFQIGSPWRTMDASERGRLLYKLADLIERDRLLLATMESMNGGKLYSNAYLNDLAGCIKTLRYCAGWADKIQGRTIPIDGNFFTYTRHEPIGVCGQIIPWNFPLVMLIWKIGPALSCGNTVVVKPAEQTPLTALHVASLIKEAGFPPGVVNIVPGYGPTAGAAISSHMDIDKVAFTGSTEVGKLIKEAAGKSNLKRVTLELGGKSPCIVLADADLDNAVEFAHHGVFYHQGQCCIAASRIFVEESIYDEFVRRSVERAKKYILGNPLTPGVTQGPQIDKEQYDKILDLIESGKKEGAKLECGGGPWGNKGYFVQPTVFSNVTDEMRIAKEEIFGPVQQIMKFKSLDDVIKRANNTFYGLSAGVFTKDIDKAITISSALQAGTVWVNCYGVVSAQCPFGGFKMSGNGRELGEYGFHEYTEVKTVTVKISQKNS

SMILES	Potency
COc1cc2c(cc1OC)-c1cc(OCCN3CCOCC3)nc(=O)n1CC2	inconclusive [inhibitor, partial curve]
CCOC(=O)/C(C#N)=C/c1c[nH]c2ccccc12	inconclusive [inhibitor, partial curve]
C[C@@H](CN(C)C[C@H]1C(=O)O[C@@H]2C[C@@]3(C)CCC[C@]4(CO4)C3CC21)[C@H](O)c1ccccc1 (stereo not given in full)	inactive
CCCCS(=O)(=O)NC1=NCN(Cc2ccco2)CN1	inactive
CC1=C(C(=O)N2CCOCC2)C(c2ccc(O)cc2)NC(=S)N1 (stereo not given)	inconclusive [inhibitor, single point]
Cc1ccc(CN2CCN(/N=C/c3ccc(C)s3)CC2)cc1	inactive
CC1CN(CCCOc2ccccc2-c2ccccc2)CC(C)O1 (stereo not given)	inconclusive [inhibitor, single point]
Cc1ccc(-n2c(N)c(C(=O)NCc3cccnc3)sc2=S)cc1	inconclusive [inhibitor, single point]
N#C/C(=C\c1ccc(F)c(F)c1)C(=O)NC1CCCCC1	inactive
c1csc(Cc2nn3c(-c4n[nH]c5c4CCC5)nnc3s2)c1	inconclusive [inhibitor, single point]
Cc1nnc(NC(=O)CSc2n[nH]c(-c3ccccc3)n2)s1	inconclusive [inhibitor, single point]
Nc1c(C(=O)NCCN2CCOCC2)c2nc3ccccc3nc2n1CCc1ccccc1F	inconclusive [inhibitor, partial curve]
O=C(CSc1nccc(=O)[nH]1)Nc1ccc(F)c(Cl)c1	inconclusive [inhibitor, single point]
CC1Nc2ccccc2C(=O)N1NS(C)(=O)=O (stereo not given)	inconclusive [inhibitor, partial curve]
CC(C)C(Nc1ncnc2c1oc1ccccc12)C(=O)O (stereo not given)	inactive
COc1cc2[nH]c(=O)n(CCCCCC(=O)N3CCN(c4ccccn4)CC3)c(=O)c2cc1OC	inconclusive [inhibitor, single point]
CN(C(=O)CSc1ccccc1C(=O)O)C1CCCCC1	active: 3.16 µM
COc1ccc2c(COC(=O)CC3Sc4ccccc4NC3=O)cc(=O)oc2c1 (stereo not given)	inconclusive [inhibitor, partial curve]
CN1CCCN(S(=O)(=O)c2cccc(Cl)c2Cl)CC1	inactive
COc1cc(C2N(c3ccccc3)CCN2c2ccccc2)cc(OC)c1OC	inconclusive [inhibitor, single point]
CCOC(=O)c1nn(-c2ccc3c(c2)OCCO3)cc1O	inconclusive [inhibitor, partial curve]
Cn1ncc(Cl)c1C(=O)Nc1nc2ccc(Cl)cc2s1	inconclusive [inhibitor, partial curve]
COc1ccc(N=C2NC(=O)C(CC(=O)NCCc3ccc(OC)c(OC)c3)S2)cc1 (stereo not given)	active: 11.2 µM
O=C(N/C(=C\c1ccc(Cl)cc1)C(=O)N1CCOCC1)c1ccc([N+](=O)[O-])cc1	inconclusive [inhibitor, single point]

SMILES	Potency
COc1ccc(-c2nc(SC)n(C(=O)c3ccco3)n2)cc1	inconclusive [inhibitor, partial curve]
O=c1c2c([N+](=O)[O-])cc([N+](=O)[O-])cc2sn1-c1ccc(Br)cc1	active: 1.41 µM
CC(=O)NC(NC(=S)Nc1ccc(N=Nc2ccccc2C)cc1C)C(Cl)(Cl)Cl (stereo not given)	inconclusive [inhibitor, single point]
Cc1ccccc1Cn1nnc(C(=O)Nc2cccc(C)c2C)c1N	inconclusive [inhibitor, single point]
Cc1nc([N+](=O)[O-])c(C(=O)OCc2ccccc2Br)n1C	inconclusive [inhibitor, single point]
Cc1ccc(S(=O)(=O)NCCC(=O)Nc2ccc(Cl)c(Cl)c2)cc1	inconclusive [inhibitor, partial curve]
CCCCn1c(=O)[nH]c(=O)c2c1nc(CN1C(=O)c3ccccc3S1(=O)=O)n2CCC	inconclusive [inhibitor, partial curve]
CN(Cc1ccccc1)C(=O)c1ccccc1-c1ccccc1	inconclusive [inhibitor, single point]
CCOc1ccc(NC(=O)COn2nnc3ccc(S(=O)(=O)N4CCOCC4)cc32)cc1	inconclusive [inhibitor, single point]
O=Cc1ccc(OC(=O)c2cccnc2)cc1	active: 5.01 µM
O=C(CSc1nc2nc(-c3cccs3)cc(C(F)(F)F)c2c(=O)[nH]1)Nc1c(F)c(F)c(F)c(F)c1F	inconclusive [inhibitor, single point]
O=C(C1CC1)N1CCc2cc(Br)cc(S(=O)(=O)NCCN3CCOCC3)c21	inactive
CN(C)c1ccc(NC(=O)Cn2ncn3c(cc4ccccc43)c2=O)cc1	inconclusive [inhibitor, partial curve]
Cc1[nH]c2ccccc2c1C(=O)CSc1nc2cc(S(=O)(=O)N3CCCCC3)ccc2o1	inactive
CNCCCOc1cc(C)cc(C)c1C	inconclusive [inhibitor, partial curve]
COc1ccc(C2CC(=O)N(CC(=O)NCC3CCCO3)c3ccccc3S2)cc1 (stereo not given)	inactive
CC(C)[C@H](NC(=O)c1ccccc1)C(=O)OCC(=O)NCc1ccc(F)cc1	inactive
O=C(O)Cn1ncc2ccccc2c1=O	inactive
CN(C)C(=O)c1ccccc1Sc1cc(Cl)ccc1Cl	inconclusive [inhibitor, single point]
Cc1cc(NC(=O)CSc2nc3ccsc3c(=O)n2Cc2ccccn2)n[nH]1	inactive
CC(C)[C@H](NC(=O)OC(C)(C)C)c1nnc(SCC(=O)Nc2ccc(Br)cc2)o1	inconclusive [inhibitor, partial curve]
Cc1ccc(NC(=O)OCC(F)(F)C(F)F)cc1NC(=O)OCC(F)(F)C(F)F	inactive
Cc1nc(NC(=O)/C=C/c2ccccc2)sc1C(=O)Nc1ccccc1	inconclusive [inhibitor, single point]
Cc1ccc(-c2nc(CN3CCN(c4cnccn4)CC3)c(C)o2)o1	inconclusive [inhibitor, single point]

SMILES	Potency
Cc1cccn2cc(-c3ccc4c(c3)NC(=O)CO4)nc12	inconclusive [inhibitor, single point]
CCCCN(C)C(=O)c1c[nH]c2ccc(S(=O)(=O)N3CCOCC3)cc2c1=O	inconclusive [inhibitor, single point]
Cc1ccc(S(=O)(=O)N2CCCCC2)cc1NC(=O)c1ccc2c(c1)OCO2	inconclusive [inhibitor, single point]
CC1(C)CC(=O)c2c(n(S(=O)(=O)c3ccccc3)c3ccc(NS(=O)(=O)c4ccccc4)cc23)C1	inconclusive [inhibitor, single point]
COc1ccc(/C=C/C(=O)C2CC2)cc1Cn1nc(C)c([N+](=O)[O-])c1C	inconclusive [inhibitor, single point]
O=C(CSc1nnc(-c2ccco2)c(-c2ccco2)n1)c1ccccc1	inactive
CN1C=CC2=C(C#N)C(N)C(C#N)(C#N)[C@H](c3ccccc3)[C@H]2C1 (stereo not given in full)	inconclusive [inhibitor, single point]
COc1c(Cl)cc(C(=O)NN)cc1Cl	active: 2.24 µM
CCN(CC)c1ccc2c(c1)CCCN2	active: 25.1 µM
C=CCn1c2ccccc2c2nnc(SCN3C(=O)c4ccccc4C3=O)nc21	active: 28.2 µM
O=C(CSc1cccc[n+]1[O-])Nc1ccc(N2CCOCC2)cc1	inconclusive [inhibitor, single point]
CCOc1ccc(/C=C/C(=O)Nc2ccc(N3CCOCC3)cc2)cc1	inactive
COc1ccc(NC(=O)CS(=O)(=O)c2cn(CC(=O)N3CCOCC3)c3ccccc23)cc1	inconclusive [inhibitor, single point]
O=C(c1noc2c1CCc1ccccc1-2)N1CCCc2ccccc21	active: 12.6 µM
C=CCN(C(=O)CSC1=NC(=O)CN1C(C)=O)c1nc(C)c(-c2ccccc2)s1	active: 6.31 µM
CCCn1c(=N)n(CCOc2ccc(OC)cc2)c2ccccc21	inactive
C=CCOc1cccc(/C=C2\C(=O)N(Cc3ccc(C)cc3)C(C)=C2C(=O)OC)c1	inconclusive [inhibitor, single point]
NNC(=O)c1ccc(Cn2cc(Cl)cn2)cc1	active: 11.2 µM
O=C(Nc1nc2ccc([N+](=O)[O-])cc2s1)c1c(F)cccc1F	inconclusive [inhibitor, full curve]
O=C(N/N=C/c1ccccc1Cl)c1[nH]c2ccc(Br)cc2c1-c1ccccc1	inconclusive [inhibitor, full curve, poor fit]
O=C1c2cccc(OCC(=O)N3N=C(c4cccs4)CC3c3ccc(F)cc3)c2CCN1Cc1cccnc1 (stereo not given)	inconclusive [inhibitor, single point]
O=S(=O)(NCCCN1CCN(c2ccccc2F)CC1)c1cccc2cccnc12	inconclusive [inhibitor, single point]
